This note sets out measurements from the supplement of paper PMC10338343.

± gives the standard deviation. The list shows a part of the results, in another mix than the full data.

For this experiment, the system named is MIWI (PIWIL1) piRISC loaded with L1MC piRNA (30 nt). The experiment in a line: pre-steady-state target cleavage rate (min^-1); MIWI and MILI are mouse PIWI proteins and EfPiwi is from a freshwater sponge; tags in brackets are library labels; higher = faster piRNA-guided slicing of the target. As to conditions: guide: L1MC piRNA 5'p-UAACUAAAUACUAUGCAAGCUGUAGGUCCU
A digest of the protocol: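 In this Cleave-'n-Seq assay, uncleaved targets were sequenced and normalised to depth and to weakly complementary targets. They came from a transcribed, DNA-blocked target RNA library […] mixed with 1 nM active affinity-purified piRISC carrying one synthetic guide, with or without 500 nM GTSF1 partner protein, in HEPES–potassium acetate buffer at 33 °C for 0–8 or 0–960 min. After three trials were pooled and k3 was capped at 0.0001 min^-1, the pre-steady-state cleavage rate was obtained from a burst-and-steady-state fit.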

Setting [1] is: auxiliary factor: 500 nM mouse GTSF1.
Setting [2] is: auxiliary factor: none (no GTSF1).
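Note: 1 nM active piRISC with 0.1 nM target library at 33 °C single turnover.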

For the sequence “UCCUGGUACAGCUUGCAUAGUAUUUAGUUU [g2:g24:cont:t1U]”, the “pre-steady-state target cleavage rate” value is, setting by setting: under setting [1], 0.971 ± 0.038; under setting [2], 0.064 ± 0.0098.

Regarding UCCUCCUACAGCUUGCAUAGUAAUUAGUUA, the “pre-steady-state target cleavage rate” value is, setting by setting: under setting [1], 0.789 ± 0.032; under setting [2], 0.0211 ± 0.0055.

Take UCCUGGAACAGCAUGCAUAGUAAUUAGUUA: the “pre-steady-state target cleavage rate” value by setting is: under setting [1], 0.576 ± 0.044; under setting [2], 0.0117 ± 0.0047.

As for UCCUGCUACAGCUUGCAUAGUUUUUAGUUA, the “pre-steady-state target cleavage rate” value was determined as 0.307 ± 0.023 under setting [1] and 0.0223 ± 0.0048 under setting [2].

Take UCCUGGAUCAGCUUGCAUAGUAUAAUGAAA: the “pre-steady-state target cleavage rate” value is 0.0792 ± 0.025 under setting [1] and 0.00385 ± 0.0031 under setting [2].

In the case of UCCUGCUACACGAUGCAUAGUAUUUAGUUA, the “pre-steady-state target cleavage rate” value by setting is: under setting [1], 0.674 ± 0.037; under setting [2], 0.00371 ± 0.0021.

For UGGACCUACUGCUUGCAUAGUAUUUUGUUA, the “pre-steady-state target cleavage rate” value under setting [1] was found to be 0.808 ± 0.046 and the “pre-steady-state target cleavage rate” value under setting [2] worked out at 0.0544 ± 0.01.

Turning to UCCUGGAACAGCUUGCAUAGUAUUUUCUUA, the “pre-steady-state target cleavage rate” value by setting is: under setting [1], 0.127 ± 0.03; under setting [2], 0.00808 ± 0.0023.

With UCCACCUACACCUUGCAUAGUAUUUUGUUA, the “pre-steady-state target cleavage rate” value came to 0.551 ± 0.077 under setting [1] and 0.0223 ± 0.0035 under setting [2].

For AGGACGUACAGCUUGCAUAGUAUUUUCAAA, the “pre-steady-state target cleavage rate” value reads like this: under setting [1], 0.173 ± 0.044; under setting [2], 0.00441 ± 0.0026.

With UCCUCCUACAGCUUCCAUUGUAUUUAGUUA, the “pre-steady-state target cleavage rate” value runs as follows: under setting [1], 0.136 ± 0.018; under setting [2], 0.00218 ± 0.0021.

Regarding UCGACCUACAGCUUGCAUUGUAUUUAGAAA, the “pre-steady-state target cleavage rate” value by setting is: under setting [1], 0.188 ± 0.022; under setting [2], 0.0036 ± 0.0022.

Regarding UCCUCCUACAGCUUGCAAAGUAUUUAGAUA, the “pre-steady-state target cleavage rate” value under setting [1] is 0.313 ± 0.04 and the “pre-steady-state target cleavage rate” value under setting [2] was 0.00839 ± 0.0022.

On to UCCUGGAACAGCUUGCAUAGUAUUAAGUUA, for which the “pre-steady-state target cleavage rate” value was determined as 0.551 ± 0.04 under setting [1] and 0.0206 ± 0.0047 under setting [2].

As to UCCACCUACACCUUCCAUAGUAUUUAGUUA, the “pre-steady-state target cleavage rate” value is 0.0317 ± 0.013 under setting [1] and 0.00281 ± 0.0021 under setting [2].

For the sequence UCCUGGAUGAGCUUGCAUAGUAUUUAGGUA, the “pre-steady-state target cleavage rate” value under setting [1] was 0.352 ± 0.051 and the “pre-steady-state target cleavage rate” value under setting [2] was 0.0324 ± 0.0069.

As to UCCUGGUACAGCUUGCAAAGAAUUUAGUUA, the “pre-steady-state target cleavage rate” value by setting is: under setting [1], 0.185 ± 0.039; under setting [2], 0.00811 ± 0.0032.

As for AGGACCUACAGCUUGCAUAGUAUUUUGUAA, the “pre-steady-state target cleavage rate” value under setting [1] came out at 0.432 ± 0.052 and the “pre-steady-state target cleavage rate” value under setting [2] was found to be 0.0627 ± 0.015.

Consider UCCAGCCUACAGCUUGCAUAGUAUUUAGUUA, for which the “pre-steady-state target cleavage rate” value reads like this: under setting [1], 1.32 ± 0.062; under setting [2], 0.0623 ± 0.0092.

AGGACGUACAGCUUGCAAAGUAUUUAGUUA: the “pre-steady-state target cleavage rate” value reads like this: under setting [1], 1.11 ± 0.057; under setting [2], 0.0396 ± 0.0083.
